Assay results as given in the supplement of paper PMC10126150.
Values marked as one replicate rest on one cluster of the flow cell; about a third of the high ones do not repeat.

Test system: ATP
Test: switch fluorescence ratio, 500 uM ATP over buffer (Cy3 cluster intensity, sum of 5 cycles each) (fold (ratio)); higher = stronger signal-on switching upon ATP binding; sequences stand for … in TCGTCGGCAGCGTCAGATGTGTATAAGAGACAGTTTTTTTTTTTTTTTTTTTTTTTTT…TC
Settings: aptamer strand: ATP DNA aptamer (quencher-CACCTGGGGGAGTATTGCGGAGGAAGG + anchor), 100 nM annealed; ATP concentration: 500 uM; one replicate
Outline: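 Clusters carrying Cy3-labelled switching strands on a modified Illumina MiSeq flow-cell were annealed to 100 nM quencher-labelled ATP aptamer and imaged in selection buffer. They were imaged again after 15 min with 500 uM ATP at 22 °C, over five buffer/ATP cycles with NaOH stripping and re-annealing in between. For each cluster, the fluorescence ratio is the summed Cy3 intensity of the target cycles divided by that of the buffer cycles, averaged per switch-domain sequence. Clusters outside 100-1000 RFU were left out.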
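Also: ATP exposure 15 min at 22 °C before imaging.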

| Sequence | switch fluorescence ratio |
| --- | --- |
| GTAGCTCCAT | 1.03 |
| GTAGGAATT | 1 |
| GTAGGATGAG | 0.956 |
| GTAGGATGTC | 0.985 |
| GTAGGATTCG | 1.03 |
| GTAGGCACTC | 1.02 |
| GTAGGCATCG | 1 |
| GTAGGCGAGG | 1.03 |
| GTAGGCGCGA | 1.05 |
| GTAGGGGAAA | 1.06 |
| GTAGGTGAAT | 1 |
| GTAGTAAGGG | 1.02 |
| GTAGTAGACG | 1.03 |
| GTAGTAGCTG | 0.999 |
| GTAGTAGTCT | 1.1 |
| GTAGTCCATA | 1.03 |
| GTAGTCGTCT | 0.899 |
| GTAGTGACAG | 1.02 |
| GTAGTGCCGG | 1.12 |
| GTAGTGTAGC | 1.05 |
| GTAGTTCCGA | 1.03 |
| GTAGTTTACT | 0.927 |
| GTAGTTTCCT | 1.06 |
| GTAGTTTCTG | 1.01 |
| GTATACTGAT | 0.993 |

| Sequence | switch fluorescence ratio |
| --- | --- |
| GTATAGAAAG | 0.973 |
| GTATATATGG | 1.07 |
| GTATCAGGTC | 1 |
| GTATCCATAG | 0.967 |
| GTATCTAGGG | 0.973 |
| GTATGGGACA | 0.996 |
| GTATGGTAGA | 0.974 |
| GTATGGTCTC | 0.988 |
| GTATGTTATT | 1 |
| GTATTAAGGC | 1.03 |
| GTATTAAGTG | 0.992 |
| GTATTAGCGG | 0.97 |
| GTATTATGGT | 0.921 |
| GTATTCAATC | 1 |
| GTATTCAGCG | 1.03 |
| GTATTCTAGG | 0.998 |
| GTATTCTGGT | 0.998 |
| GTATTTAAC | 1.05 |
| GTATTTGGCT | 1.02 |
| GTATTTTCTG | 1.02 |
| GTATTTTCTT | 1.01 |
| GTCAACCAAG | 1.02 |
| GTCAACTTAG | 1.03 |
| GTCAAGGCTT | 1.14 |
| GTCACAGTGC | 0.988 |

| Sequence | switch fluorescence ratio |
| --- | --- |
| GTCACATCAT | 1.02 |
| GTCACCGTCG | 1.01 |
| GTCACGCCG | 1.11 |
| GTCACTACTT | 1.02 |
| GTCACTGTGA | 1.04 |
| GTCAGACGGG | 0.943 |
| GTCAGAGATG | 1 |
| GTCAGATCTT | 0.99 |
| GTCAGCAGCT | 0.964 |
| GTCAGGCAGG | 1.02 |
| GTCAGGGCAC | 1.01 |
| GTCAGGGGGC | 1.11 |
| GTCAGTTTGA | 0.972 |
| GTCATAAC | 1.22 |
| GTCATAAGTT | 0.973 |
| GTCATACTGC | 1.06 |
| GTCATCGGCG | 0.999 |
| GTCATGATAT | 0.986 |
| GTCATGGGAC | 1.02 |
| GTCATGTCGC | 1.01 |
| GTCATTCGG | 0.971 |
| GTCATTCTCT | 0.974 |
| GTCCATTGTT | 0.978 |
| GTCCCAGATC | 1.02 |
| GTCCGATTTG | 0.979 |

| Sequence | switch fluorescence ratio |
| --- | --- |
| GTCCGGAGGT | 1 |
| GTCCTAGTGT | 1.05 |
| GTCCTCCCAG | 3.65 |
| GTCCTGACAT | 1.03 |
| GTCCTTGCAT | 1.2 |
| GTCCTTGGGA | 1 |
| GTCGAACTTA | 1.01 |
| GTCGACACCT | 1.08 |
| GTCGACCCGG | 1.01 |
| GTCGAGGGTA | 1.04 |
| GTCGAGTAGG | 1.03 |
| GTCGATTTGT | 0.998 |
| GTCGCAACG | 1.01 |
| GTCGCCCCTG | 1.01 |
| GTCGCCCGCT | 0.938 |
| GTCGCCCTTC | 1.02 |
| GTCGCGTGGG | 1.02 |
| GTCGCTAGAG | 0.994 |
| GTCGCTAGGG | 1.02 |
| GTCGCTCTTA | 0.985 |
| GTCGGAATCG | 1.04 |
| GTCGGACTTG | 0.976 |
| GTCGGCATTC | 1.06 |
| GTCGGCCGAA | 0.997 |
| GTCGGCTAGT | 0.952 |

| Sequence | switch fluorescence ratio |
| --- | --- |
| GTCGGGGGAG | 0.998 |
| GTCGGGTATT | 0.963 |
| GTCGGTAGGC | 0.992 |
| GTCGGTTTCG | 1.03 |
| GTCGGTTTGG | 0.977 |
| GTCGTACTC | 0.961 |
| GTCGTATCAT | 0.962 |
| GTCGTCGTGC | 1.05 |
| GTCGTGATTG | 0.988 |
| GTCGTGCCTT | 0.995 |
| GTCGTGGGGG | 0.989 |
| GTCGTTATCT | 0.964 |
| GTCGTTCTGG | 1.02 |
| GTCTAAATCT | 1.05 |
| GTCTAACATG | 1 |
| GTCTACGCGG | 1.06 |
| GTCTACTGTG | 1.02 |
| GTCTATCCGA | 0.99 |
| GTCTATGCAT | 1.04 |
| GTCTATGCGC | 1.01 |
| GTCTATGTAG | 0.977 |
| GTCTCCTCAC | 1.2 |
| GTCTCCTTGC | 1.22 |
| GTCTGAAGTA | 0.954 |
| GTCTGAAGTT | 0.922 |

| Sequence | switch fluorescence ratio |
| --- | --- |
| GTCTGAGGT | 0.962 |
| GTCTGTAGGT | 1.02 |
| GTCTGTGCTG | 1.01 |
| GTCTGTGTCG | 0.972 |
| GTCTGTGTTC | 0.987 |
| GTCTGTTAAA | 1.02 |
| GTCTTAGAGT | 0.985 |
| GTCTTAGATT | 1.01 |
| GTCTTCGGGG | 1.07 |
| GTCTTGTTG | 0.988 |
| GTCTTTGATT | 0.928 |
| GTCTTTTGAG | 0.961 |
| GTGAAAATAA | 0.989 |
| GTGAAATCGG | 1.04 |
| GTGAAGCTCC | 1.1 |
| GTGAATGGGT | 1.03 |
| GTGAATTGTG | 1 |
| GTGAGCCCCG | 1.03 |
| GTGAGGTATG | 0.972 |
| GTGAGGTGAG | 1 |
| GTGAGTAATA | 1.08 |
| GTGAGTCTGG | 1.01 |
| GTGATAGGCT | 0.988 |
| GTGATAGGTC | 1.06 |
| GTGATATCAT | 1 |

| Sequence | switch fluorescence ratio |
| --- | --- |
| GTGATATGAC | 1.05 |
| GTGATCAGCG | 0.999 |
| GTGATCGCAT | 0.946 |
| GTGATCTAGC | 1.07 |
| GTGATCTCCG | 1.13 |
| GTGATGAGG | 0.998 |
| GTGATTAGCA | 0.962 |
| GTGCAAAGTA | 1.03 |
| GTGCAACCTA | 1.02 |
| GTGCAAGTGT | 0.992 |
| GTGCACCGAC | 1.13 |
| GTGCACGTGT | 0.97 |
| GTGCAGCGAT | 1.6 |
| GTGCCTTCCA | 1.37 |
| GTGCGAAGTG | 1 |
| GTGCGAGAGG | 1.03 |
| GTGCGATACC | 2.7 |
| GTGCGCGGGG | 1.06 |
| GTGCTAAAAA | 0.962 |
| GTGCTATTTT | 0.97 |
| GTGCTTAGTG | 0.984 |
| GTGCTTGTTG | 0.994 |
| GTGGAATCGT | 1.02 |
| GTGGAGGAAT | 1.02 |
| GTGGATTGGG | 0.992 |

| Sequence | switch fluorescence ratio |
| --- | --- |
| GTGGCAGGCC | 0.963 |
| GTGGCCGTGG | 0.987 |
| GTGGCCTCCG | 1.16 |
| GTGGCGCGTG | 0.959 |
| GTGGCGGGTG | 1.02 |
| GTGGGACGCC | 1 |
| GTGGGAGTGG | 1.01 |
| GTGGGCAGTT | 1.05 |
| GTGGGGACTA | 1.01 |
| GTGGGGCTTT | 0.992 |
| GTGGGGGCAC | 1.1 |
| GTGGGTCGGA | 1.01 |
| GTGGTAAATC | 0.998 |
| GTGGTAATGT | 1.01 |
| GTGGTACAA | 1.03 |
| GTGGTAGAGA | 1.06 |
| GTGGTCGCTA | 0.997 |
| GTGGTCTGGT | 0.952 |
| GTGGTGTAGG | 1 |
| GTGGTTAAAG | 0.999 |
| GTGGTTCGCG | 0.976 |
| GTGTAAGTGG | 0.986 |
| GTGTACAGGG | 1.04 |
| GTGTACATCC | 1.01 |
| GTGTACCCTA | 1.05 |
